# In article PMC7819943, “Rice protein-binding microarrays: a tool to detect cis-acting elements near promoter regions in rice”:
# The other results are listed elsewhere or left out.
# Target: T1, OsWOX13 (Oryza sativa, UniProt Q5QMM3 1-267)
# T1 sequence: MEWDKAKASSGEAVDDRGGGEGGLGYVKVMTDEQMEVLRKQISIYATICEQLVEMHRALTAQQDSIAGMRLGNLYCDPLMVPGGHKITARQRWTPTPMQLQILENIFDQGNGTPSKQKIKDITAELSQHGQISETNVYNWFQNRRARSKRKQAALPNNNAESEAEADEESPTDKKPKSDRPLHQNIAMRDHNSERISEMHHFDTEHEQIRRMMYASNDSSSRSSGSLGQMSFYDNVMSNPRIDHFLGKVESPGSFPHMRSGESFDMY
# Assay: protein-binding microarray (RPBM); PBS, 2% BSA, 51.3 ng/ul salmon testes DNA, 50 uM zinc acetate, 200 nM TF, 25 C, 1 h; high values mean tight binding
# Details: protein: recombinant; tags: N-terminal polyhistidine and DsRed monomer fusion (pET32a); label: CyDye5-dUTP incorporated in the synthesized complementary strand; 3' TTTTT single-stranded linker to array surface; dsDNA, one strand shown
# Outline: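 Transcription factors were made in E. coli BL21-CodonPlus as N-terminal fusions to a polyhistidine tag and DsRed, then purified on Ni–NTA. After primer extension with Cy5-dUTP and blocking with 2% BSA, a custom Agilent array was exposed for 1 h at 25 °C to 200 nM protein in PBS, 2% BSA, salmon testes DNA and 50 µM zinc acetate. Washed arrays were scanned on an Axon 4000B, and the binding signal is per-feature fluorescence intensity in arbitrary units.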
row,Sequence,binding signal
1,ATAGCCAATCATGTACTTCCTGTTTCGGCGCAAGAGGTCGCGGAGTCACCTAGTGCAG,13400 fluorescence intensity (a.u.)
2,TTTTAAATGGGCTAGAATAGTAATTGCTACCATTTGAGGTCGGAGTCACCTAGTGCAG,5540 fluorescence intensity (a.u.)
3,GGTTTAACTGAACATGACAGGTCGTGTACAAATTCAAGATCGGAGTCACCTAGTGCAG,17100 fluorescence intensity (a.u.)
4,CCTAATGGCCATAATTTAACAATGTGGTGCTACAGTAAACCGGAGTCACCTAGTGCAG,14900 fluorescence intensity (a.u.)
5,ATTTTATCTATTTATCTATCTATTTATGCATGGACAAGGGCGGAGTCACCTAGTGCAG,5520 fluorescence intensity (a.u.)
6,ACTCCTCAAACAGGTTGATTGGTCATTTGCACATTAAGGACGGAGTCACCTAGTGCAG,28900 fluorescence intensity (a.u.)
7,ACTCTGTTATCTCACATCTGTTAATTCTCCTGTATGGTATCGGAGTCACCTAGTGCAG,3410 fluorescence intensity (a.u.)
8,TACTTCAAAATACTGATTACATCAATCAGAATTGCCACTGCGGAGTCACCTAGTGCAG,8020 fluorescence intensity (a.u.)
9,CTAAGCAAATCATAATAATCAGAACATTTTCTATAATCATCGGAGTCACCTAGTGCAG,3830 fluorescence intensity (a.u.)
10,GATAACCAATTGTTTAATTATTCTTAGTCCCTTATCTTATCGGAGTCACCTAGTGCAG,8430 fluorescence intensity (a.u.)
11,GCAATTCCAATCTTATTGGAATTAATTGTCAACCCATCCTCGGAGTCACCTAGTGCAG,15400 fluorescence intensity (a.u.)
12,TGAAGCTGATGTTGATTAAGATGTGATGTGTATACGTGAACGGAGTCACCTAGTGCAG,3850 fluorescence intensity (a.u.)
13,GTATAATCACTAATTGATTAGATTCAAACTGTTGAATTGACGGAGTCACCTAGTGCAG,43900 fluorescence intensity (a.u.)
14,CCGGCTGATCGAATAATTTGCCGACGAAATCGACCACGCTCGGAGTCACCTAGTGCAG,3330 fluorescence intensity (a.u.)
15,GGTAATTACAATGTACATGAATGCAATTATGGAGTGAAAACGGAGTCACCTAGTGCAG,13500 fluorescence intensity (a.u.)
16,AACTAAACATAATCTTTGAAAAGTTTGATTTTGAACACGGCGGAGTCACCTAGTGCAG,6770 fluorescence intensity (a.u.)
17,ATGCTCATACTGATTATCCAATCACTGATCTACTCCAAATCGGAGTCACCTAGTGCAG,21200 fluorescence intensity (a.u.)
18,AAATGCACTCTTTTCATTTCACCTAGACACAACCTAGTTTCGGAGTCACCTAGTGCAG,44800 fluorescence intensity (a.u.)
19,TACACTAATTAATTAAGCATTAATCGTGGGAAGAGTAACGCGGAGTCACCTAGTGCAG,47000 fluorescence intensity (a.u.)
20,CCATCCGCCCCAGATTTATCAATTACTCCTCGTCATCTCGCGGAGTCACCTAGTGCAG,5510 fluorescence intensity (a.u.)
21,CTTAATTACCGGCCGGTTCGAAACAATTTGATTTGATCCCCGGAGTCACCTAGTGCAG,20600 fluorescence intensity (a.u.)

row,Sequence,binding signal
1,TCTGATTAGGTAGGTAGCAAACGGACGATCATTTGGACCGCGGAGTCACCTAGTGCAG,44000 fluorescence intensity (a.u.)
2,TTTTATGATTGATTTGGCACCACTGCTACAATAATGCATCCGGAGTCACCTAGTGCAG,27400 fluorescence intensity (a.u.)
3,TAAAATTTAATTAATTATGTGTTAATCTATCGCTCCGTTTCGGAGTCACCTAGTGCAG,46800 fluorescence intensity (a.u.)
4,CTATTAAATTAGCTATAGATAAATTAAAGCTAGCAGTAGGCGGAGTCACCTAGTGCAG,40300 fluorescence intensity (a.u.)
5,GCCGTCAATCAAAGCAGAGGCCCAGCTACATAACTGGGCTCGGAGTCACCTAGTGCAG,20100 fluorescence intensity (a.u.)
6,ACTAAGCTTCAATCTGCCATCATCATGGATATGATCATTGCGGAGTCACCTAGTGCAG,3920 fluorescence intensity (a.u.)
7,TGCGTTTCTCAAATTATACAAGTCATGATGGATATGTCGTCGGAGTCACCTAGTGCAG,3460 fluorescence intensity (a.u.)
8,ATGATAGATTACATATTTACAGTGATTAAGCATAGCATTACGGAGTCACCTAGTGCAG,39300 fluorescence intensity (a.u.)
9,AATAATTAATTCATTTGTTTATACACTTAAATAGCTAATACGGAGTCACCTAGTGCAG,40500 fluorescence intensity (a.u.)
10,TATATTATGATTTATTTTAGAAAATACCAGATACTAAGAGCGGAGTCACCTAGTGCAG,5780 fluorescence intensity (a.u.)
11,GAGTAATTGCTTATTATACTATTAATATATGGTCACACCTCGGAGTCACCTAGTGCAG,48100 fluorescence intensity (a.u.)
12,CAACTTAATTTTATCTATGCAACCTTATGGTCAAATCTGTCGGAGTCACCTAGTGCAG,7480 fluorescence intensity (a.u.)
13,TTATCTACTGCAAATTTGTAAATTACCATGACAAGCCGACCGGAGTCACCTAGTGCAG,4430 fluorescence intensity (a.u.)
14,ATAAAATTACATATGTAGTTTTAGTGTATTTACCATGTGACGGAGTCACCTAGTGCAG,5300 fluorescence intensity (a.u.)
15,AATAATTTTATTTACATACACAGGAAACTAAAATTTTCTACGGAGTCACCTAGTGCAG,3200 fluorescence intensity (a.u.)
16,TGCTTCAATTATCCAGCTTTGGAAACTCGCTGTTTGTTTCCGGAGTCACCTAGTGCAG,4980 fluorescence intensity (a.u.)
17,GTGGATTCAAATGGATTAGTTAAACTGGCAGATTTTGGGCCGGAGTCACCTAGTGCAG,4510 fluorescence intensity (a.u.)
18,AGTACTTAATTTAGTCCCACGTACATTTAACTATTAACCGCGGAGTCACCTAGTGCAG,7620 fluorescence intensity (a.u.)
19,AACTAATATAATTTCTATTTTCATATGAATTAGTAAAATTCGGAGTCACCTAGTGCAG,5040 fluorescence intensity (a.u.)
20,TGCTATCCAAAGACTCTAATTGACGATGAACTTGCAGTTTCGGAGTCACCTAGTGCAG,9330 fluorescence intensity (a.u.)
21,TTTGATTGTGGTTATTGCACTGAAATTTTACAGATATTGTCGGAGTCACCTAGTGCAG,31800 fluorescence intensity (a.u.)
